Results: the BET-seq Pho4 binding data (Le et al. 2018)
The other results are listed elsewhere or left out. The energies were worked out here from pooled read counts, against the library average; single values are noisy.

target: T1, Pho4 (S. cerevisiae) (UniProt P07270); test: relative binding free energy (BET-seq); higher = weaker binding; conditions: reference: library average
T1 sequence: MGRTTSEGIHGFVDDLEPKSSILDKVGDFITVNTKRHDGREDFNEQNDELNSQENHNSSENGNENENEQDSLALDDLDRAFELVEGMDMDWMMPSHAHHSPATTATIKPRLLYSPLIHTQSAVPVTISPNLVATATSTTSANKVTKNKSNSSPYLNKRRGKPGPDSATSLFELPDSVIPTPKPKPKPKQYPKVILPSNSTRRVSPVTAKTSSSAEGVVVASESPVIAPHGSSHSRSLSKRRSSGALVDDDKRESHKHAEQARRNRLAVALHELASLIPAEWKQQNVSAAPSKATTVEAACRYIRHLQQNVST

| Sequence | relative binding free energy [kcal/mol] |
| --- | --- |
| TTTAGCACGTGCAGGA | -0.05 |
| GTGAGCACGTGTATTG | -0.16 |
| AGTATCACGTGGTAAG | 0.11 |
| ATCGACACGTGGGGTT | -0.19 |
| ATTGGCACGTGTAAAA | 0.15 |
| TGTTTCACGTGAATAT | 0.31 |
| AGAGTCACGTGGTTCA | 0.08 |
| TTGAGCACGTGTTAGT | 0.01 |
| GGAGGCACGTGGGTGC | -0.23 |
| CCGGGCACGTGGATGG | -0.03 |
| GGAGGCACGTGTGAGC | 0.01 |
| AAATTCACGTGCTTGT | 0.21 |
| AGGCGCACGTGGATGG | -0.1 |
| GTCGTCACGTGTTTTT | 0.25 |
| ATATGCACGTGGTAAG | -0.24 |
| ATTGGCACGTGAATTA | 0.04 |
| TAGGTCACGTGTCGTT | 0.18 |
| CGAGTCACGTGGGGTG | -0.07 |
| ATATTCACGTGTACGG | 0.29 |
| TGTGACACGTGGATGT | -0.07 |
| AGGATCACGTGGTGCT | 0.06 |
| TAGGGCACGTGTTTGA | -0.05 |
| AAAGGCACGTGTGGTG | -0.09 |
| GAGTACACGTGATATT | 0.24 |
| TAACGCACGTGGTGAA | 0.01 |

| Sequence | relative binding free energy [kcal/mol] |
| --- | --- |
| TATAGCACGTGGGTCT | -0.2 |
| GAGGTCACGTGCGTTG | 0.15 |
| CTGGACACGTGGGAGT | 0.09 |
| GTGGACACGTGGTTAT | -0.04 |
| AGGGCCACGTGTCTGG | -0.18 |
| GTTGGCACGTGCTGTG | -0.2 |
| GTGGTCACGTGCCGGG | 0.06 |
| GGTAGCACGTGGAGAA | -0.05 |
| TATTTCACGTGATCAG | 0.19 |
| TGCGGCACGTGGGAGC | -0.19 |
| AAGAGCACGTGTGGAA | -0.03 |
| CGGGTCACGTGGAATA | 0.16 |
| ATTATCACGTGCTCGT | 0.14 |
| TCATTCACGTGGGTTG | 0.13 |
| GAAACCACGTGTGGGG | 0.06 |
| ACGTGCACGTGGAGGT | -0.03 |
| TGCGTCACGTGAGGTA | 0.16 |
| GCTGTCACGTGTTAGT | 0.1 |
| GGTAACACGTGTGGCA | 0.05 |
| AGGGGCACGTGCGTCG | -0.11 |
| TGGTGCACGTGTAATT | 0.13 |
| GGTCACACGTGGCTGG | 0.14 |
| GGCATCACGTGGTATT | 0.17 |
| TAGGTCACGTGTCATG | 0.04 |
| GTTAGCACGTGTCTAG | -0.06 |

| Sequence | relative binding free energy [kcal/mol] |
| --- | --- |
| AAGGACACGTGGATAT | 0.16 |
| GGGCTCACGTGTGGTA | 0.27 |
| AATTGCACGTGTAAGT | 0.01 |
| AGTCTCACGTGGTCGG | 0.15 |
| TGAGCCACGTGATAGG | 0.05 |
| GGATCCACGTGGAGGT | 0 |
| TGTTACACGTGATGCG | 0.11 |
| TTAATCACGTGGGTGC | 0 |
| CTTATCACGTGTGCTG | 0.12 |
| GAGATCACGTGAGGGC | 0.28 |
| ACATGCACGTGAAGGT | 0.2 |
| ATGGGCACGTGCGTCA | -0.21 |
| GTGAGCACGTGTTGTT | -0.01 |
| TAGATCACGTGTATTA | 0.02 |
| GTTGTCACGTGCAGGG | 0.07 |
| TACTGCACGTGTGCGT | 0.07 |
| ATGAACACGTGGGTAG | 0.03 |
| GTTGTCACGTGTGTGG | 0.28 |
| GTTGACACGTGTTGAT | 0 |
| ATCATCACGTGGTTGT | 0.11 |
| AGCGGCACGTGCGTGG | -0.23 |
| TGAGGCACGTGTGATG | 0.05 |
| GTTTGCACGTGTTGAT | -0.04 |
| GGTAGCACGTGGGCAT | -0.23 |
| GGCGTCACGTGTGGTG | 0.2 |

| Sequence | relative binding free energy [kcal/mol] |
| --- | --- |
| AATTTCACGTGGGGGT | 0.18 |
| TAAGGCACGTGGAGAT | -0.06 |
| TAGGGCACGTGCACGG | -0.22 |
| CGGAGCACGTGAAGGT | 0.13 |
| CTTTGCACGTGGTTAT | -0.07 |
| GCAGTCACGTGAGAGT | 0.32 |
| GGGGCCACGTGTTGGC | -0.03 |
| AGCTTCACGTGTAGGT | 0.26 |
| GTATGCACGTGTTGTC | 0.07 |
| GTGCGCACGTGCTGTG | -0.18 |
| AAGGGCACGTGTTGTG | -0.05 |
| TCTATCACGTGGGTTG | 0.04 |
| GGTCCCACGTGGAGTG | -0.01 |
| GTGATCACGTGATTCG | 0.24 |
| CTTTTCACGTGTGAAT | 0.24 |
| TCTAACACGTGAGGGG | 0.24 |
| TTGGGCACGTGGGTTA | -0.23 |
| GGAGTCACGTGGGCCT | 0.15 |
| AAGCGCACGTGGGCGT | -0.32 |
| GGTGGCACGTGCCGGA | -0.09 |
| AGTGTCACGTGGTGAA | 0.06 |
| GGTTCCACGTGTAGTG | 0.15 |
| TTGTACACGTGCATGT | 0 |
| GTAATCACGTGTCGTT | 0.32 |
| TTGGTCACGTGATTAT | 0.18 |

| Sequence | relative binding free energy [kcal/mol] |
| --- | --- |
| GTGGGCACGTGAGGGG | 0.31 |
| GTGTGCACGTGCATGG | -0.04 |
| GGGGGCACGTGGCGGG | -0.14 |
| CTAGTCACGTGACGGG | 0.29 |
| CGTTGCACGTGTAGGA | -0.05 |
| AGTTACACGTGGTAAT | 0.14 |
| TAGGACACGTGTTTTG | 0.05 |
| TGCGTCACGTGATCGT | 0.17 |
| TGGTACACGTGTAATG | 0.2 |
| AAGGCCACGTGAGGGG | 0.17 |
| AAAGTCACGTGGGGGG | 0.01 |
| GATGGCACGTGAGGGC | 0.22 |
| ATCGGCACGTGTTGAT | -0.09 |
| GGATTCACGTGAGGGG | 0.3 |
| ATGCACACGTGGGCTG | -0.06 |
| CTAGGCACGTGGAGTT | -0.16 |
| TTGAGCACGTGGGCTG | -0.24 |
| TTGTACACGTGGGTTC | -0.13 |
| TGGCGCACGTGGTCTT | -0.15 |
| GGTTACACGTGGATAG | 0.17 |
| TGTATCACGTGGGCGT | 0.03 |
| TCTTACACGTGTTGAT | -0.02 |
| AGGTTCACGTGTGTGA | 0.23 |
| GGGAACACGTGTGGTG | 0.14 |
| TAGTGCACGTGATAGG | 0.06 |

| Sequence | relative binding free energy [kcal/mol] |
| --- | --- |
| AAGTACACGTGTAGGT | -0.01 |
| TGGGGCACGTGGACGA | -0.01 |
| AGATTCACGTGGGTAT | 0.21 |
| TTTAACACGTGAGTGT | 0.07 |
| CGTGGCACGTGCTAAG | -0.02 |
| TTCTGCACGTGTGAGT | 0.02 |
| GGTGTCACGTGTAGTT | 0.18 |
| GATGTCACGTGTGGCG | 0.14 |
| TTAAGCACGTGATGAG | -0.02 |
| TTTACCACGTGTGTAG | -0.05 |
| TGCTTCACGTGCGGTA | 0.15 |
| TGGCTCACGTGTGTGT | 0.16 |
| GACTACACGTGGGTTT | -0.01 |
| TTGATCACGTGCAATG | 0.17 |
| ATATTCACGTGGGGGT | 0.12 |
| TATAGCACGTGTTTCG | -0.13 |
| GTCTGCACGTGAATGT | 0.34 |
| GTGGCCACGTGGCGCG | -0.18 |
| GTTAGCACGTGGCGAT | -0.18 |
| GTTCTCACGTGAGGTA | 0.36 |
| TTTGTCACGTGGCTAT | -0.05 |
